# Hit rate of the full screen: of about 94,000 compounds, about 6,200 (6.6%) were called active. The shares of active, inactive and inconclusive entries below differ from those in the screen. The call rests on the fitted dose curve; in most records, active means well fitted inhibition curve with a large enough effect; inconclusive means small, poorly fitted or top-dose-only effect; inactive means flat fitted curve, though single readings scatter. Potencies beside an inconclusive call are fits to weak or partial responses and may not hold up.
# Assay: Cytotoxic Profiling in HEK 293 Cell Line of Diverse Libraries Using Quantitative High-Throughput Screening; further: nearly all actives have a fitted effect of over 60% in size
# Conditions: HEK 293 viability, ATP luminescence (CellTiter-Glo), 48-72 h; series mostly up to 115 µM
# How it was run: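 HEK 293 cells seeded at 250 cells/well were exposed to compound for 48 or 72 hr at 37 degree Celsius. Viability taken as ATP content by CellTiter-Glo luminescence.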
# Potency means the concentration at half of the fitted maximal effect; tags describe the fitted curve by direction and shape.
row,Structure (SMILES),Potency
1,CN1[C@@H](CCC(=O)N2CCOCC2)CNC(=O)[C@@H]2[C@H]1CCN2Cc1nc2ccccc2n1C,inactive
2,O=C(NC1CCN(c2cc(N3CCOCC3)cnn2)C1)C1CCCC1 (stereo not given),inactive
3,Cn1ccnc1C(=O)N1CCC(N2C(=O)C3(CCCCC3)C2c2ccncc2)CC1 (stereo not given),inactive
4,O=C(c1[nH]nc2c1COc1ccccc1-2)N1CC(c2noc(COc3ccc(F)cc3)n2)C1,"inconclusive: 28.2 µM [inhibitor, single point]"
5,Cn1nc(C(=O)N2CCCN(c3cc(-c4ccc(Cl)cc4)[nH]n3)CC2)c2ccccc21,active: 39.8 µM
6,Cc1cc(C)n(-c2cccc(CN(C)C(=O)C3CCC(=O)N(C4CCCC4)C3)c2)n1 (stereo not given),"inconclusive: 56.2 µM [inhibitor, partial curve, poor fit]"
7,COc1ccc(C(=O)N2CCN(c3nccc(Nc4ccccc4Cl)n3)CC2)cc1,"inconclusive: 56.2 µM [inhibitor, partial curve, poor fit]"
8,COc1cccc2c1OCCCN(Cc1nnc(-c3ccccc3)o1)C2,"inconclusive: 79.4 µM [inhibitor, partial curve, poor fit]"
9,COc1cc(CN(C)C2CCOc3ccccc32)ccc1F (stereo not given),"inconclusive: 100 µM [inhibitor, partial curve]"
10,Cc1cnc(CC2CCN(Cc3cccc(F)c3)C2)n1CC1CC1 (stereo not given),"inconclusive: 44.7 µM [inhibitor, partial curve, poor fit]"
11,CCC1(N2CCN(C(=O)c3cc(Cl)ccc3OC)CC2)CCN(C(=O)NC)C1 (stereo not given),inactive
12,Cc1ccc(C)c(N2CCN(C(=O)c3cc(-c4ccncc4)cn3C)CC2)c1,"inconclusive: 50.1 µM [inhibitor, partial curve, poor fit]"
13,CNc1cccnc1OC1CCN(S(=O)(=O)Cc2ccccc2)C1 (stereo not given),inactive
14,Cn1nccc1C(=O)N1CCC(Oc2ccccc2)C1 (stereo not given),inactive
15,O=C(NCC1CC1)C1(F)CCN(S(=O)(=O)c2cccs2)CC1,inactive
16,CC(=O)c1cc(CN2CCC(CO)(Cc3ccccc3Cl)CC2)cs1,"inconclusive: 50.1 µM [inhibitor, partial curve, poor fit]"
17,Cn1ncc2c(C(=O)NC3CC3)cc(-c3ccc(F)cc3)nc21,"inconclusive: 79.4 µM [inhibitor, partial curve, poor fit]"
18,COc1ccc(CC(=O)NCCNC(=O)c2cccc(-c3ncccc3C#N)c2)cc1,inactive
19,Cc1nc(-c2ccccc2)n(CC(=O)Nc2ccc(C(C)C)cc2)c(=O)c1CCO,"inconclusive: 50.1 µM [inhibitor, partial curve, poor fit]"
20,CCC1(O)CCC12CCN(C(=O)c1cccs1)CC2 (stereo not given),"inconclusive: 89.1 µM [inhibitor, single point]"
21,CCCNC(=O)N1C[C@@H](Oc2ccccc2)C[C@@H]1C(=O)NC,inactive
22,NC(=O)[C@H](CC1CCCCC1)NC(=O)[C@@H]1CN(C(=O)Nc2ccccc2)CCN1C(=O)C1CCNCC1,inactive
23,CC1=C[C@@H](CNS(=O)(=O)c2ccc(C#N)cc2)[C@H](C(C)C)C[C@H]1CC(=O)NCc1ccc(C#N)cc1,"inconclusive: 50.1 µM [inhibitor, partial curve, poor fit]"

row,Structure (SMILES),Potency
1,Cc1cc(=O)n(CC(=O)N2C[C@H](CO)C[C@H](CN(C)C)C2)nc1C,inactive
2,O=C(c1ccoc1)N1CCC2(CC1)N=C(c1ccccc1)NO2,inactive
3,O=C(c1ccc2nccn2c1)N1CCC(Cc2ccccc2)CC1,"inconclusive: 56.2 µM [inhibitor, partial curve, poor fit]"
4,CCn1cc(S(=O)(=O)N2CCCC(Cc3ncc(C)n3Cc3ccccc3)C2)cn1 (stereo not given),inactive
5,O=C(c1cccnc1OC1CCN(C(=O)C2CC2)C1)N1CCOCC1 (stereo not given),inactive
6,CN(C)c1cc(=O)c2ccnc(-c3ccccc3F)c2o1,"inconclusive: 141 µM [inhibitor, partial curve, poor fit]"
7,Cc1c(CN2CCOc3ccc(C(=O)NCc4ccccc4F)cc3C2)cnn1C,"inconclusive: 44.7 µM [inhibitor, partial curve, poor fit]"
8,CCOC(=O)CCN1CCC2(C1)C(=O)N(C)C(=O)N2CCOC (stereo not given),inactive
9,O=C(CNC(=O)c1cccc(-c2ccsc2)c1)NCc1ccc(F)cc1F,"inconclusive: 89.1 µM [inhibitor, single point]"
10,CN(C)C(=O)[C@@H]1CN(Cc2ccc(F)cc2F)C[C@H]1CO,inactive
11,COCCNC(=O)[C@H]1C[C@H](Oc2ccccc2)CN1C(=O)c1ccc(F)cc1,inactive
12,CC(C)CCN1CCC2(COc3ccccc3C(=O)N2)C1 (stereo not given),"inconclusive: 126 µM [inhibitor, partial curve, poor fit]"
13,CCOc1cccc(CN2CCC3(CCNCC3)C2)c1O,"inconclusive: 79.4 µM [inhibitor, partial curve]"
14,O=C(N[C@H]1C[C@H]2C(=O)Nc3cc(Cl)ccc3C(=O)N2C1)c1ccccc1,inactive
15,O=C(c1ccc(C(F)(F)F)cc1)N1CCC12Cc1ccccc1NC2=O (stereo not given),"inconclusive: 100 µM [inhibitor, single point]"
16,CCOCCOC1CCN(C(=O)Cc2cccnc2)CC1,inactive
17,O=C1Nc2ccccc2CC12CCN2Cc1cccc2ccccc12 (stereo not given),"inconclusive: 63.1 µM [inhibitor, partial curve, poor fit]"
18,O=C(Nc1ccon1)[C@@H]1C[C@@H](c2ccc(F)cc2)N(Cc2ccccc2)C1,active: 31.6 µM
19,O=C(NCCc1ccc(F)cc1)c1ccc2nnc(-c3ccc(Cl)cc3)n2c1,"inconclusive: 50.1 µM [inhibitor, partial curve, poor fit]"
20,O=C(c1nccc2ccccc12)N1CCC(n2cc(-c3nc(-c4ccccc4)no3)nn2)C1 (stereo not given),active: 28.2 µM
21,Cc1cc(F)ccc1-c1[nH]nc2ncc(-c3ccc([S+](C)(=O)[O-])cc3)nc12,"inconclusive: 39.8 µM [inhibitor, full curve]"
22,O=C(CN1C(=O)NC(c2ccc(Cl)cc2)C2=C1COC2=O)Nc1ccc2c(c1)OCCO2 (stereo not given),"inconclusive: 31.6 µM [inhibitor, full curve, poor fit]"

# Source: PubChem BioAssay AID1345083 (National Center for Advancing Translational Sciences (NCATS), 2018)
